Here are results for 92 compounds from PubChem BioAssay AID463173 (ICCB-Longwood Screening Facility, Harvard Medical School, 2010).

Structures are written as SMILES. About 1,700 (3.3%) of roughly 52,000 compounds were called active. Cut-off read from the data, not from the text of the source: active = survival mostly below about 52% (no sharp cut-off); inactive = mostly above about 56%. The list shows a part of the results.

This test deals with Wild type. Description: growth inhibition of S. aureus wild type versus tarO mutant, primary screen, teichoic acid synthesis inhibitors, RN4220, OD600 (AID 463173). To be noted: S. aureus RN4220 wild type/DeltatarO growth, OD600, 18 h, stronger effect = lower value, screened at 18.75 µg/mL (by protocol).
Take `Cc1cc(N2CCCCC2)nc2ccc(NC(=O)c3cccc(Cl)c3)cc12`: the survival was active: -2%.

As for `CCOc1ccc(CNS(=O)(=O)c2cc3c(cc2C)NC(=O)CO3)cc1OC`, the survival was inactive: 82%.

In the case of `COc1ccc(S(=O)(=O)N2CCC(O)(c3cccnc3)CC2)cc1OC`, the survival is inactive: 114%.

`CCOc1ccccc1C(=O)Nc1ccc2nc(N(CC)CC)cc(C)c2c1`: the survival was inactive: 63%.

Take `Cc1ccc(OCC(=O)Nc2nnc(SCc3cc(=O)c4ccccc4[nH]3)s2)cc1`: the survival was inactive: 78%.

Regarding `CC(C)N(C(=O)CN1CCN(Cc2ccccc2)CC1)C(C)C`, the survival was inactive: 107%.

Take `CCN(CC)C(=O)Cn1cc(SCC(=O)Nc2ccccc2C)c2ccccc21`: the survival was inactive: 83%.

Consider `CCOC(=O)N1CCc2c(sc(NCc3cc(OC)c(OC)cc3OC)c2C(=O)Nc2ccc(OCC)cc2)C1`, for which the survival was inactive: 68%.

`CCc1ccc(-n2c(=O)c3cccnc3n2CC(=O)Nc2cc(F)ccc2F)cc1`: the survival was inactive: 73%.

As for `CCN1CCN(c2ncc3c(n2)CCN(Cc2ccc(OC(C)C)cc2)C3)CC1`, the survival is inactive: 55%.

As to `O=C(NC1CCCCC1)NC1CCN(Cc2nnnn2Cc2ccc3c(c2)OCO3)CC1`, the survival was inactive: 106%.

For `CCOC(=O)c1ccc(-c2ccc(/C=C(\C#N)C(=O)Nc3ccc(OCC)cc3)o2)cc1`, the survival was inactive: 73%.

For the compound `Cc1cccc(-c2nc(SCCCOc3ccc(Cl)c(C)c3)n3[nH]c(=O)cc3n2)c1`, the survival was inactive: 68%.

With `CCOC(=O)c1cccc(NC(=O)NCc2ccc3c(c2)CCN3C(=O)c2ccccc2)c1`, the survival is inactive: 136%.

Consider `CCc1ccccc1NC(=O)C(=O)NCC(c1cccnc1)N1CCN(c2ccccc2F)CC1` (configuration not stated), for which the survival was inactive: 92%.

As to `COc1ccc(Cl)cc1-n1nnc(-c2nsc(NC(=O)c3ccccc3Cl)n2)c1C`, the survival was inactive: 44%.

As to `Cc1ccc(NC(=O)C2CCC(CNS(=O)(=O)c3csc(C(N)=O)c3)CC2)cc1Cl` (configuration not stated), the survival was inactive: 68%.

Take `CCCSc1nc2sc3c(c2c(=O)n1Cc1ccccc1)CC(C)(CC)OC3` (configuration not stated): the survival was inactive: 20%.

In the case of `COC(=O)c1nnn(-c2cccc(C)c2)c1C(=O)OC`, the survival was inactive: 77%.

For the compound `COc1ccc(C2(CNC(=O)C(=O)Nc3ccc(F)cc3)CCCC2)cc1OC`, the survival was inactive: 84%.

Consider `O=C(N/N=C1/SCC(=O)N1Cc1ccco1)c1ccccc1F`, for which the survival was inactive: 97%.

Consider `Cc1ccc(NS(=O)(=O)c2ccc3c(c2)CCCN3C(=O)C2CCC2)c(C)c1`, for which the survival was inactive: 58%.

`N#Cc1cc(O)c(-n2nnc3ccccc32)cc1C#N`: the survival was inactive: 107%.

Consider `CCOC(=O)c1c(S(=O)(=O)NCC(=O)Nc2cc(C)ccc2C)c(C)n(C)c1C`, for which the survival was inactive: 66%.

Take `CCc1nn(Cc2cc(C)ccc2C)c(=O)c2cc3cc(C)ccc3n12`: the survival is inactive: 81%.

Consider `CC(C)(C)C(=O)Cn1c(C(=O)O)cc2ccccc21`, for which the survival was inactive: 106%.

As for `CCc1nn2c(=O)cc(COC(=O)c3ccco3)nc2s1`, the survival was inactive: 124%.

Take `COc1ccc(N2CC(NC(=O)c3ccc(Br)o3)CC2=O)cc1` (configuration not stated): the survival was inactive: 88%.

Turning to `CCCC(=O)Nc1ccc2c(C)cc(C)nc2n1`, the survival is inactive: 99%.

Turning to `Cc1ccc(-c2cn3c(n2)sc2cc(C(=O)NC(C)C45CC6CC(CC(C6)C4)C5)ccc23)cc1` (configuration not stated), the survival is inactive: 86%.

Take `CCOC(=O)C1CCN(S(=O)(=O)c2csc(C(N)=O)c2)CC1`: the survival was inactive: 88%.

For `COc1ccc(N2CCN(C(=O)c3cc4c(s3)-c3ccccc3OC4)CC2)cc1`, the survival was inactive: 116%.

With `CCOc1ccccc1CNC(=O)C1CCN(S(=O)(=O)c2ccc3c(ccn3C)c2)CC1`, the survival is inactive: 70%.

As for `O=C(Cn1ncc2c([nH]c3ccccc32)c1=O)NCC1CCN(Cc2ccc(F)cc2)CC1`, the survival is inactive: 90%.

On to `Cc1ccccc1C(=O)Nc1nc(-c2nnn(-c3ccc(C(C)C)cc3)c2C)ns1`, for which the survival was inactive: 85%.

Consider `COc1ccc(CN2CCN(c3ncnc4sc5c(c34)CC(C)CC5)CC2)cc1F` (configuration not stated), for which the survival is inactive: 66%.

In the case of `C/C=C/C(=O)N1c2ccccc2C(C)=CC1(C)C`, the survival was inactive: 101%.

As for `Cc1cc(Cl)ccc1NC(=O)CN(c1ccccc1Br)S(C)(=O)=O`, the survival is inactive: 77%.

For `CCOc1ccc(C(=O)NCCS(=O)(=O)N2CCN(c3ccccc3F)CC2)cc1OCC`, the survival is inactive: 102%.

For `COc1ccccc1N1CCN(CCCNC(=O)c2cnn(-c3ccccc3)c2C2CCN(C(=O)OC(C)(C)C)CC2)CC1`, the survival is inactive: 58%.

Take `CC(C)NCC(O)COc1ccccc1` (configuration not stated): the survival was inactive: 112%.

As for `Nc1ccnn1C1CCCC1`, the survival was inactive: 100%.

Regarding `N#CC1=C(N)SC(N)=C(C#N)C1c1ccc(O)cc1`, the survival was inactive: 84%.

With `CCc1ccc(-n2c(Cc3ccccc3)nnc2SCc2nc(-c3cccs3)no2)cc1`, the survival was inactive: 99%.

Turning to `Cn1ccnc1SCC(=O)Nc1ccccc1`, the survival was inactive: 105%.

In the case of `Cc1ccc(C)n1-c1nnc(N2CCCC(C(=O)NCc3cccc(Cl)c3)C2)s1` (configuration not stated), the survival was inactive: 67%.

`CCn1cc(S(=O)(=O)c2cccc(Cl)c2)c(=O)c2cc(F)c(N3CCN(c4ccccc4)CC3)cc21`: the survival was inactive: 55%.

Regarding `Cc1nc2ccn(Cc3cccs3)c(=O)c2cc1C(=O)Nc1ccccc1`, the survival is inactive: 91%.

In the case of `CC1=C(C(=O)NCc2ccc(Cl)cc2)C2(CCCCC2)OC1=O`, the survival was inactive: 71%.

In the case of `Cc1ccc(/C=C/c2onc(C)c2S(=O)(=O)N2CCC(C(=O)NCC(C)c3ccccc3)CC2)cc1` (configuration not stated), the survival is inactive: 73%.

On to `O=C(NCCc1ccccc1)c1cc(Sc2cccc(Cl)c2)nc2ccccc12`, for which the survival was inactive: 78%.

Take `Cc1nn(CC(=O)Nc2ccc3c(c2)oc2ccccc23)c(=O)c2ccccc12`: the survival is inactive: 95%.

For the compound `CCCCCn1c(-c2ccc(OC)c(OC)c2)nc2ccccc21`, the survival was active: 1%.

With `Cc1ccc(Cl)cc1N1CCN(S(=O)(=O)c2ccc3c(c2)CCCN3C(=O)C2CCC2)CC1`, the survival is inactive: 97%.

In the case of `O=C(NCc1cccc(F)c1)C1CC(O)CN1C(=O)Nc1ccccc1` (configuration not stated), the survival was inactive: 95%.

Consider `Cc1ccc(CN2C(=O)c3oc4ccc(C)cc4c(=O)c3C2c2ccc(O)cc2)cc1` (configuration not stated), for which the survival was inactive: 84%.

For `COc1cc(OC)c(NC(=O)Cn2c(=O)oc3cc(S(=O)(=O)N4CCCC4)ccc32)cc1Cl`, the survival is inactive: 68%.

Consider `COc1ccc(NS(=O)(=O)c2ccc3[nH]c4c(c3c2)CCCC4)cc1Cl`, for which the survival was inactive: 60%.

As to `CCCn1nnnc1SCC(=O)c1ccccc1`, the survival was inactive: 123%.

With `Cc1ccc(OCC(=O)N(Cc2ccco2)Cc2ccc(C)o2)cc1`, the survival is inactive: 82%.

Turning to `CCC(C)NC(=O)c1nn(-c2ccc(C)cc2)c(=O)n(C)c1=O` (configuration not stated), the survival is inactive: 72%.

Regarding `COc1ccc(-c2cc(C(F)(F)F)n3nc(C(=O)Nc4ccccc4SC)cc3n2)cc1OC`, the survival is inactive: 135%.

For `COc1cc2c(=O)n(CCC(=O)NCC3CCCO3)c(=O)n(CC(=O)Nc3ccc(C)c(C)c3)c2cc1OC` (configuration not stated), the survival was inactive: 79%.

Consider `CC(C)c1cccc(OCCn2c(-c3ccc(Cl)cc3)nc3ccccc3c2=O)c1`, for which the survival was inactive: 76%.

On to `COc1cccc(CCNC(=O)c2c(O)nc3ccccn3c2=O)c1`, for which the survival is inactive: 67%.

Turning to `COCCCNC(=O)C1CCN(c2nn3cc(-c4ccc(F)cc4)nc3s2)CC1`, the survival was inactive: 88%.

Turning to `CCOc1ccccc1NC(=O)c1cnn2c(C(F)F)cc(-c3ccccc3)nc12`, the survival is inactive: 52%.

For `c1coc(C2NCCS2)c1` (configuration not stated), the survival is inactive: 99%.

As to `Cc1ccccc1C(=O)OCc1cc(=O)n2nc(-c3cccs3)sc2n1`, the survival was inactive: 128%.

Turning to `CCOc1ccc(NC(=O)/C(C#N)=C\c2cc(C)n(C)c2C)cc1`, the survival was inactive: 103%.

With `CC1=C(C(=O)Nc2ccccc2)C(c2cccs2)n2nc(SCc3ccccc3F)nc2N1` (configuration not stated), the survival is inactive: 92%.

For the compound `CN(C)CCN(Cc1ccco1)C(=O)c1oc2ccccc2c1NC(=O)c1ccccc1`, the survival is inactive: 88%.

Turning to `Cc1ccccc1NC(=O)CN1CCC(n2nnc3ccccc32)CC1`, the survival was inactive: 90%.

As to `Cc1ccc(C)c(NC(=O)c2cc(S(=O)(=O)N3CCCCCC3)ccc2F)c1`, the survival was inactive: 75%.

As to `CC(C)OC(=O)CSc1ncnc2c1cnn2-c1ccccc1`, the survival is inactive: 100%.

Turning to `COc1ccc(CCCc2nnc(SCC(=O)Nc3ccc(OC)cc3)o2)cc1`, the survival is inactive: 72%.

Take `Cc1ccc2c(=O)c(C(=O)c3cccc(Cl)c3)cn(CC(=O)Nc3ccc4c(c3)OCCO4)c2n1`: the survival was inactive: 74%.

Turning to `Cn1cc(S(=O)(=O)c2cccc(Cl)c2)c(=O)c2cc(F)c(N3CCN(c4ccccc4)CC3)cc21`, the survival is active: 1%.

`O=C(CSc1nnc(NC(=O)Nc2ccccc2)s1)Nc1cccc(F)c1`: the survival is inactive: 75%.

In the case of `CN1C(=O)Cc2cc(S(=O)(=O)CCC(=O)Nc3ccc(F)c(Cl)c3)ccc21`, the survival is inactive: 112%.

Turning to `O=C(Nc1cc(F)ccc1F)N1CCC(CN2CCCC2)CC1`, the survival was inactive: 82%.

Regarding `O=C(CSc1nc2ccccc2o1)c1ccc2c(c1)OCCO2`, the survival was inactive: 108%.

`CCOC(=O)c1ccccc1NC(=O)N1CCC(CN2CCCCC2)CC1`: the survival was inactive: 72%.

For the compound `CCOc1ccc(NC(=O)CN2CCCN(Cc3cc(C)ccc3C)S2(=O)=O)cc1`, the survival is inactive: 86%.

For `Cc1ccc(NC(=O)C(C)Sc2nc(=O)cc(N)n2-c2ccccc2)cc1` (configuration not stated), the survival was inactive: 77%.

On to `CCOC(=O)c1cccc(NC(=O)CCn2nc(C)c(S(=O)(=O)N3CCCCC3)c2C)c1`, for which the survival is inactive: 120%.

Take `CCCC(=O)Nc1ccc(-c2nc3ncccc3o2)cc1C`: the survival was inactive: 89%.

As to `COc1cc(C2c3c(-c4cc(C)ccc4O)n[nH]c3C(=O)N2CCCO)ccc1OCCC(C)C` (configuration not stated), the survival is inactive: 67%.

For `CCc1ccccc1Nc1cc(C(=O)NC(C)c2ccccc2)c2ccccc2n1` (configuration not stated), the survival is inactive: 94%.

For the compound `CCCc1nn2c(=O)cc(COC(=O)c3ccccc3NC(=O)c3ccc(Cl)cc3)nc2s1`, the survival is inactive: 101%.

Consider `CCOc1ccc(NC(=O)C2CCN(c3nnc(-n4c(C)ccc4C)s3)CC2)cc1`, for which the survival is inactive: 88%.

For the compound `COc1ccc(NC(=O)CSc2nc3ccccc3n2Cc2cccc(OC)c2)cc1`, the survival was inactive: 159%.
